Laboratory results published in the supplement of paper PMC8728848.
Some of the results follow.

Tests used:
Test in all cases: glycan array binding signal (z-score within array); higher = stronger binding
Conditions in all cases: glycan notation: IUPAC condensed, linker removed; mutation: R343I
Fuc(a1-2)Gal = biological target: Fuc(a1-2)Gal
In short: (§1)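 Arrays were curated from the Consortium for Functional Glycomics database, 3228 in total, and kept only where the protein sequence was available. Binding is expressed as a within-array Z-score. This score was averaged across arrays of the same protein sequence at different concentrations or buffers and across linkers, and negative values can be read as non-binding.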

Fuc(a1-2)Gal(b1-3)GalNAc = biological target: Fuc(a1-2)Gal(b1-3)GalNAc
In short: as §1

[1] = biological target: Fuc(a1-2)Gal(b1-3)GalNAc(b1-3)Gal
In short: as §1

[2] = biological target: Fuc(a1-2)Gal(b1-3)GalNAc(b1-3)Gal(a1-4)Gal(b1-4)Glc
In short: as §1

[3] = biological target: Fuc(a1-2)Gal(b1-3)GalNAc(b1-4)[Neu5Ac(a2-3)]Gal(b1-4)Glc
In short: as §1

Fuc(a1-2)Gal(b1-3)GlcNAc = biological target: Fuc(a1-2)Gal(b1-3)GlcNAc
In short: as §1

[4] = biological target: Fuc(a1-2)Gal(b1-3)GlcNAc(b1-3)Gal(b1-4)Glc
In short: as §1

[5] = biological target: Fuc(a1-2)Gal(b1-3)[Fuc(a1-4)]GlcNAc
In short: as §1

Fuc(a1-2)Gal(b1-4)Glc = biological target: Fuc(a1-2)Gal(b1-4)Glc
In short: as §1

Fuc(a1-2)Gal(b1-4)Glc6S = biological target: Fuc(a1-2)Gal(b1-4)Glc6S
In short: as §1

Fuc(a1-2)Gal(b1-4)GlcNAc = biological target: Fuc(a1-2)Gal(b1-4)GlcNAc
In short: as §1

[6] = biological target: Fuc(a1-2)Gal(b1-4)GlcNAc(b1-3)Gal(b1-4)GlcNAc
In short: as §1

[7] = biological target: Fuc(a1-2)Gal(b1-4)GlcNAc(b1-3)Gal(b1-4)GlcNAc(b1-3)Gal(b1-4)GlcNAc
In short: as §1

[8] = biological target: Fuc(a1-2)Gal(b1-4)GlcNAc6S
In short: as §1

[9] = biological target: Fuc(a1-2)Gal(b1-4)[Fuc(a1-3)]GlcNAc
In short: as §1

[10] = biological target: Fuc(a1-2)Gal(b1-4)[Fuc(a1-3)]GlcNAc(b1-3)Gal(b1-4)[Fuc(a1-3)]GlcNAc
In short: as §1

[11] = biological target: Fuc(a1-2)Gal(b1-4)[Fuc(a1-3)]GlcNAc(b1-3)Gal(b1-4)[Fuc(a1-3)]GlcNAc(b1-3)Gal(b1-4)[Fuc(a1-3)]GlcNAc
In short: as §1

Fuc(a1-2)Gal6S(b1-4)Glc = biological target: Fuc(a1-2)Gal6S(b1-4)Glc
In short: as §1

[12] = biological target: Fuc(a1-2)Gal6S(b1-4)Glc6S
In short: as §1

[13] = biological target: Fuc(a1-2)Gal6S(b1-4)GlcNAc
In short: as §1

Fuc(a1-2)[Gal(a1-3)]Gal = biological target: Fuc(a1-2)[Gal(a1-3)]Gal
In short: as §1

[14] = biological target: Fuc(a1-2)[Gal(a1-3)]Gal(b1-3)GlcNAc
In short: as §1

[15] = biological target: Fuc(a1-2)[Gal(a1-3)]Gal(b1-4)Glc
In short: as §1

[16] = biological target: Fuc(a1-2)[Gal(a1-3)]Gal(b1-4)GlcNAc
In short: as §1

[17] = biological target: Fuc(a1-2)[Gal(a1-3)]Gal(b1-4)[Fuc(a1-3)]GlcNAc
In short: as §1

[18] = biological target: Fuc(a1-2)[Gal(a1-4)]Gal(b1-4)GlcNAc
In short: as §1

[19] = biological target: Fuc(a1-2)[GalNAc(a1-3)]Gal
In short: as §1

[20] = biological target: Fuc(a1-2)[GalNAc(a1-3)]Gal(b1-3)GlcNAc
In short: as §1

[21] = biological target: Fuc(a1-2)[GalNAc(a1-3)]Gal(b1-4)Glc
In short: as §1

[22] = biological target: Fuc(a1-2)[GalNAc(a1-3)]Gal(b1-4)GlcNAc
In short: as §1

[23] = biological target: Fuc(a1-2)[GalNAc(a1-3)]Gal(b1-4)[Fuc(a1-3)]GlcNAc
In short: as §1

[24] = biological target: Fuc(a1-2)[GalNAc(a1-4)]Gal(b1-4)GlcNAc
In short: as §1

[25] = biological target: Fuc(a1-2)[GalNAc(b1-3)]Gal
In short: as §1

Fuc(a1-3)GlcNAc = biological target: Fuc(a1-3)GlcNAc
In short: as §1

[26] = biological target: Fuc(a1-3)[Gal(b1-4)]Glc6S
In short: as §1

[27] = biological target: Fuc(a1-3)[Gal(b1-4)]GlcNAc
In short: as §1

[28] = biological target: Fuc(a1-3)[Gal(b1-4)]GlcNAc(b1-2)Man(a1-3)[Fuc(a1-3)[Gal(b1-4)]GlcNAc(b1-2)Man(a1-6)]Man(b1-4)GlcNAc(b1-4)GlcNAc
In short: as §1

[29] = biological target: Fuc(a1-3)[Gal(b1-4)]GlcNAc(b1-2)Man(a1-6)[Gal(b1-4)GlcNAc(b1-2)Man(a1-3)]Man(b1-4)GlcNAc(b1-4)GlcNAc
In short: as §1

[30] = biological target: Fuc(a1-3)[Gal(b1-4)]GlcNAc(b1-3)Gal(b1-3)[Fuc(a1-4)]GlcNAc
In short: as §1

[31] = biological target: Fuc(a1-3)[Gal(b1-4)]GlcNAc(b1-4)Gal(b1-4)[Fuc(a1-3)]GlcNAc
In short: as §1

[32] = biological target: Fuc(a1-3)[Gal(b1-4)]GlcNAc(b1-4)Gal(b1-4)[Fuc(a1-3)]GlcNAc(b1-4)Gal(b1-4)[Fuc(a1-3)]GlcNAc
In short: as §1

[33] = biological target: Fuc(a1-3)[Gal(b1-4)]GlcNAc6S
In short: as §1

[34] = biological target: Fuc(a1-3)[Gal3S(b1-4)]Glc6S
In short: as §1

[35] = biological target: Fuc(a1-3)[Gal3S(b1-4)]GlcNAc
In short: as §1

[36] = biological target: Fuc(a1-3)[Gal3S(b1-4)]GlcNAc6S
In short: as §1

[37] = biological target: Fuc(a1-3)[GalNAc(b1-4)]GlcNAc
In short: as §1

Fuc(a1-4)GlcNAc = biological target: Fuc(a1-4)GlcNAc
In short: as §1

Fuc(b1-3)GlcNAc = biological target: Fuc(b1-3)GlcNAc
In short: as §1

Gal(a1-2)Gal = biological target: Gal(a1-2)Gal
In short: as §1

Gal(a1-3)Gal = biological target: Gal(a1-3)Gal
In short: as §1

Gal(a1-3)Gal(b1-3)GlcNAc = biological target: Gal(a1-3)Gal(b1-3)GlcNAc
In short: as §1

Gal(a1-3)Gal(b1-4)Glc = biological target: Gal(a1-3)Gal(b1-4)Glc
In short: as §1

Gal(a1-3)Gal(b1-4)GlcNAc = biological target: Gal(a1-3)Gal(b1-4)GlcNAc
In short: as §1

[38] = biological target: Gal(a1-3)Gal(b1-4)[Fuc(a1-3)]GlcNAc
In short: as §1

Gal(a1-3)GalNAc = biological target: Gal(a1-3)GalNAc
In short: as §1

[39] = biological target: Gal(a1-3)[Gal(a1-4)]Gal(b1-4)GlcNAc
In short: as §1

Gal(a1-4)Gal(b1-4)Glc = biological target: Gal(a1-4)Gal(b1-4)Glc
In short: as §1

Gal(a1-4)Gal(b1-4)GlcNAc = biological target: Gal(a1-4)Gal(b1-4)GlcNAc
In short: as §1

Gal(a1-4)GlcNAc = biological target: Gal(a1-4)GlcNAc
In short: as §1

Gal(a1-6)Glc = biological target: Gal(a1-6)Glc
In short: as §1

B1: Surfactant Protein D (Human); Neck + Carbohydrate Recognition Domain (NCRD) (Homo sapiens) (protein)
chain: MLLFLLSALVLLTQPLGYLEAEMKTYSHRTMPSACTLVMCSSVESGLPGRDRDGREGPRGEKGDPGLPGAAGQAGMPGQAGPVGPKGDNGSVGEPGPKGDTGPSGPPGPPGVPGPAGREGALGKQGNIGPQGKPGPKGEAGPKGEVGAPGMQGSAGARGLAGPKGERGVPGERGVPGNTGAAGSAGAMGPQGSPGARGPPGLKGDKGIPGDKGAKGESGLPDVASLRQQVEALQGQVQHLQAAFSQYKKVELFPNGQSVGEKIFKTAQFVKPFTEAQLLCTQAGGQLASPRSAAENAALQQLVVAKNEAAFLSMTDSKTEGKFTYPTGESLVYSNWAPGEPNDDGGSEDCVEIFTNGKWNDIACGEKRLVVCEF
Fuc(a1-2)Gal
  glycan array binding signal (z-score): -0.264
Fuc(a1-2)Gal(b1-3)GalNAc
  glycan array binding signal (z-score): -0.279
[1]
  glycan array binding signal (z-score): -0.215
[2]
  glycan array binding signal (z-score): -0.275
[3]
  glycan array binding signal (z-score): -0.231
Fuc(a1-2)Gal(b1-3)GlcNAc
  glycan array binding signal (z-score): -0.258
[4]
  glycan array binding signal (z-score): -0.271
[5]
  glycan array binding signal (z-score): -0.266
Fuc(a1-2)Gal(b1-4)Glc
  glycan array binding signal (z-score): -0.273
Fuc(a1-2)Gal(b1-4)Glc6S
  glycan array binding signal (z-score): -0.274
Fuc(a1-2)Gal(b1-4)GlcNAc
  glycan array binding signal (z-score): -0.251
[6]
  glycan array binding signal (z-score): -0.262
[7]
  glycan array binding signal (z-score): -0.239
[8]
  glycan array binding signal (z-score): -0.277
[9]
  glycan array binding signal (z-score): -0.274
[10]
  glycan array binding signal (z-score): -0.256
[11]
  glycan array binding signal (z-score): -0.224
Fuc(a1-2)Gal6S(b1-4)Glc
  glycan array binding signal (z-score): -0.264
[12]
  glycan array binding signal (z-score): -0.265
[13]
  glycan array binding signal (z-score): -0.262
Fuc(a1-2)[Gal(a1-3)]Gal
  glycan array binding signal (z-score): -0.265
[14]
  glycan array binding signal (z-score): -0.272
[15]
  glycan array binding signal (z-score): -0.254
[16]
  glycan array binding signal (z-score): -0.279
[17]
  glycan array binding signal (z-score): -0.273
[18]
  glycan array binding signal (z-score): -0.26
[19]
  glycan array binding signal (z-score): -0.266
[20]
  glycan array binding signal (z-score): -0.274
[21]
  glycan array binding signal (z-score): -0.275
[22]
  glycan array binding signal (z-score): -0.269
[23]
  glycan array binding signal (z-score): -0.267
[24]
  glycan array binding signal (z-score): -0.266
[25]
  glycan array binding signal (z-score): -0.275
Fuc(a1-3)GlcNAc
  glycan array binding signal (z-score): 5.51
[26]
  glycan array binding signal (z-score): -0.27
[27]
  glycan array binding signal (z-score): -0.261
[28]
  glycan array binding signal (z-score): -0.264
[29]
  glycan array binding signal (z-score): -0.272
[30]
  glycan array binding signal (z-score): -0.254
[31]
  glycan array binding signal (z-score): -0.278
[32]
  glycan array binding signal (z-score): -0.258
[33]
  glycan array binding signal (z-score): -0.264
[34]
  glycan array binding signal (z-score): -0.271
[35]
  glycan array binding signal (z-score): -0.271
[36]
  glycan array binding signal (z-score): -0.276
[37]
  glycan array binding signal (z-score): -0.258
Fuc(a1-4)GlcNAc
  glycan array binding signal (z-score): 2.65
Fuc(b1-3)GlcNAc
  glycan array binding signal (z-score): -0.055
Gal(a1-2)Gal
  glycan array binding signal (z-score): -0.275
Gal(a1-3)Gal
  glycan array binding signal (z-score): -0.267
Gal(a1-3)Gal(b1-3)GlcNAc
  glycan array binding signal (z-score): -0.269
Gal(a1-3)Gal(b1-4)Glc
  glycan array binding signal (z-score): -0.264
Gal(a1-3)Gal(b1-4)GlcNAc
  glycan array binding signal (z-score): -0.275
[38]
  glycan array binding signal (z-score): -0.271
Gal(a1-3)GalNAc
  glycan array binding signal (z-score): -0.268
[39]
  glycan array binding signal (z-score): -0.274
Gal(a1-4)Gal(b1-4)Glc
  glycan array binding signal (z-score): -0.278
Gal(a1-4)Gal(b1-4)GlcNAc
  glycan array binding signal (z-score): -0.274
Gal(a1-4)GlcNAc
  glycan array binding signal (z-score): -0.27
Gal(a1-6)Glc
  glycan array binding signal (z-score): -0.274
